# Results from the supplement of paper PMC12217912.
# The list shows a part of the results. The full chains were built here from the parent and the listed change. Inactive controls read about 0.05.
# B1: TEV protease; numbered along this chain (parent)
# chain: MGESLFKGPRDYNPISSSICHLTNESDGHTTSLYGIGFGPFIITNKHLFRRNNGTLVVQSLHGVFKVKDTTTLQQHLVDGRDMIIIRMPKDFPPFPQKLKFREPQREERICLVTTNFQTKSMSSMVSDTSCTFPSGDGIFWKHWIQTKDGQCGSPLVSTRDGFIVGIHSASNFTNTNNYFTSVPKNFMELLTNQEAQQWVSGWRLNADSVLWGGHKVFMVKPEEPFQPVKEATQL
# Variants of: B1
# Experiment: raw area under fraction-flipped curve 0-4 h after induction (AUC4h, not background-subtracted), DNA-recorder readout of cleavage of the substrate (dimensionless); higher = more cleavage of the substrate by the protease variant
# Conditions: temperature: 34 °C; time window: 0-4 h after rhamnose induction
# Description: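 In vivo DNA recorder in E. coli TOP10(DE3) ΔrhaA at 34 °C. Each TEVp single-site mutant (parent TEVp 0) is paired with a single-site variant of the 7-mer TEVs (canonical ENLYFQ|S). The substrate sits between flexible linkers in a Bxb1-sfGFP-TEVs-SsrA fusion, so cleavage stabilises Bxb1 and speeds flipping of a recombination array, read by NGS. The value is the raw area under the fraction-flipped curve over 0-4 h after rhamnose induction (AUC4h), with ≥20 reads per time point. It is not background-subtracted; inactive controls average about 0.047.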
# 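Note: Bxb1 expression induced with 0.2% (w/v) L-rhamnose at OD600 near 0.5, cultures sampled hourly, flipped fraction per protease–substrate barcode pair counted by paired-end Illumina sequencing.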
Variant,area with substrate ENLYAQS,area with substrate ENLYCQS,area with substrate ENLYDQS,area with substrate ENLYEQS,area with substrate ENLYGQS,area with substrate ENLYHQS,area with substrate ENLYIQS,area with substrate ENLYKQS,area with substrate ENLYLQS,area with substrate ENLYNQS,area with substrate ENLYPQS,area with substrate ENLYQQS,area with substrate ENLYRQS,area with substrate ENLYSQS,area with substrate ENLYVQS,area with substrate ENLYYQS,area with substrate ENLYMQS,area with substrate ENLYTQS,area with substrate ENLYWQS
F49Q,0.0483,0.0604,0.0572,0.0532,0.0627,0.0499,0.0598,0.0618,0.0425,0.0581,0.052,0.0525,0.0548,0.0638,0.0574,0.0327,,,
F187R,0.0333,0.0558,0.0216,0.0552,0.0596,0.0549,,0.0433,0.055,0.0466,0.0465,,0.0708,,0.0826,0.0554,0.0486,0.0534,0.0514
R10W,0.0745,0.11,0.0682,0.0598,0.0671,0.066,0.13,0.056,0.0879,0.0685,0.0676,0.0486,0.0551,0.0775,0.131,0.0618,0.0898,0.0827,0.0803
G54K,0.0476,,0.0588,0.0502,0.0526,,,0.0751,,0.0589,0.0418,0.0794,,0.0652,,,,,0.0497
I139V,0.0725,0.0741,0.0669,0.0679,0.0777,0.0711,0.11,0.0589,0.139,0.0657,0.073,0.0475,0.0558,0.0841,0.127,0.056,0.0849,,
P94W,0.0803,,0.0621,0.0659,0.065,0.0924,0.126,0.0638,0.0848,0.0723,0.073,0.0572,0.053,0.0678,,0.0914,0.0788,0.0773,0.0835
T23A,0.0762,0.0817,0.0538,0.0522,0.0377,0.0698,0.125,0.0627,0.101,0.0674,0.0633,0.0606,0.0601,0.0695,0.0656,0.0835,0.099,,
V220E,0.0495,0.127,0.0622,,,0.0702,0.129,,,0.0606,0.0784,0.0949,,0.043,0.112,0.0675,0.11,,0.0756
R204M,0.0631,0.102,0.0568,0.062,0.0666,0.0713,0.153,0.0559,,0.0673,0.0719,0.072,0.066,0.087,0.112,0.0614,0.1,0.0889,0.101
K148C,0.0703,0.0682,0.0712,0.0706,0.0624,0.0565,0.11,0.0581,0.0855,0.0646,0.0575,,0.0682,,0.0888,0.078,0.0829,0.0925,0.0781
N177I,0.0878,,0.0629,0.0762,,0.104,0.21,,,0.0828,0.0948,0.0648,0.065,0.0943,0.161,,,0.0989,
P155I,0.0867,0.0614,0.0429,0.0595,,0.0568,0.0617,0.0604,,,0.0522,0.0694,0.0527,,0.0845,0.0534,0.0749,0.0461,0.0632
H76M,0.0898,,0.0815,0.0669,,0.0809,0.131,,,0.0765,0.0716,0.0254,0.075,,,0.0341,,,
P89Y,0.0512,,,0.0658,0.0432,0.0574,0.062,0.0551,,0.0421,0.0563,,0.0285,,0.0744,0.0437,0.0621,0.0691,0.0248
D11P,0.0529,,,0.062,,0.0629,0.0643,,,0.0626,0.0666,0.0681,0.071,0.0588,0.0597,,0.0523,,0.0656
G162L,0.0864,0.0878,,0.0664,0.0753,0.0686,,0.0539,,0.0575,0.0623,,0.0622,,0.0888,0.0479,0.0853,0.0528,0.0638
E189T,0.0666,,0.0526,0.0477,0.0735,0.0671,,0.0548,0.0929,0.0579,0.069,0.067,0.0562,0.0844,,0.0559,,0.0778,0.0813
C111D,0.0589,,0.0444,0.0667,0.0735,0.0587,0.0593,0.0565,0.0537,0.0607,0.0529,0.0585,0.066,0.0505,,,0.0648,0.0719,0.065
G213R,0.0602,0.0614,0.0577,0.0455,0.0688,0.0566,0.0565,0.0561,0.0548,0.0632,0.0503,0.0595,0.0526,0.0589,0.065,0.0544,0.0575,0.0605,0.0594
K68I,0.0713,,0.0589,0.0675,0.0889,0.0452,0.135,0.0401,0.0986,0.0674,0.0683,0.0563,0.0403,0.0661,0.121,0.0472,0.0434,,
P14H,0.0682,,0.0404,0.068,0.0526,0.0722,,,0.0936,0.0748,0.0783,0.0803,,0.0767,,,,,
G37F,0.0232,0.0674,0.0538,0.0404,0.0503,0.0564,,0.0153,0.0775,0.0554,0.0573,0.0663,0.0518,,0.0736,0.059,0.0654,,0.0672
N52Q,0.0649,0.094,0.0369,,0.0591,0.0658,,0.056,0.0472,0.0609,0.0538,0.0646,,0.0722,,0.0788,0.0705,,0.0622
N45P,0.076,,0.057,,,0.0648,0.0736,,,,0.0684,0.0764,0.0513,,0.0741,0.0545,,0.0626,
